According to PMC4336329 (PLoS ONE, 2015):
Out of some 310,000 compounds screened, about 14,000 (4.5%) showed an effect of 50% or more. The effect is printed as a negative number. This is one part of the list.

Target: human ether-à-go-go-related gene (hERG) potassium channel (human, UniProt Q12809)
Assay: primary screen, population patch clamp on CHO cells stably expressing hERG
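Note: peak tail current of the secondary pulse compared with the same well before compound.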

Sequence of human ether-à-go-go-related gene (hERG) potassium channel (Q12809 whole entry, looked up): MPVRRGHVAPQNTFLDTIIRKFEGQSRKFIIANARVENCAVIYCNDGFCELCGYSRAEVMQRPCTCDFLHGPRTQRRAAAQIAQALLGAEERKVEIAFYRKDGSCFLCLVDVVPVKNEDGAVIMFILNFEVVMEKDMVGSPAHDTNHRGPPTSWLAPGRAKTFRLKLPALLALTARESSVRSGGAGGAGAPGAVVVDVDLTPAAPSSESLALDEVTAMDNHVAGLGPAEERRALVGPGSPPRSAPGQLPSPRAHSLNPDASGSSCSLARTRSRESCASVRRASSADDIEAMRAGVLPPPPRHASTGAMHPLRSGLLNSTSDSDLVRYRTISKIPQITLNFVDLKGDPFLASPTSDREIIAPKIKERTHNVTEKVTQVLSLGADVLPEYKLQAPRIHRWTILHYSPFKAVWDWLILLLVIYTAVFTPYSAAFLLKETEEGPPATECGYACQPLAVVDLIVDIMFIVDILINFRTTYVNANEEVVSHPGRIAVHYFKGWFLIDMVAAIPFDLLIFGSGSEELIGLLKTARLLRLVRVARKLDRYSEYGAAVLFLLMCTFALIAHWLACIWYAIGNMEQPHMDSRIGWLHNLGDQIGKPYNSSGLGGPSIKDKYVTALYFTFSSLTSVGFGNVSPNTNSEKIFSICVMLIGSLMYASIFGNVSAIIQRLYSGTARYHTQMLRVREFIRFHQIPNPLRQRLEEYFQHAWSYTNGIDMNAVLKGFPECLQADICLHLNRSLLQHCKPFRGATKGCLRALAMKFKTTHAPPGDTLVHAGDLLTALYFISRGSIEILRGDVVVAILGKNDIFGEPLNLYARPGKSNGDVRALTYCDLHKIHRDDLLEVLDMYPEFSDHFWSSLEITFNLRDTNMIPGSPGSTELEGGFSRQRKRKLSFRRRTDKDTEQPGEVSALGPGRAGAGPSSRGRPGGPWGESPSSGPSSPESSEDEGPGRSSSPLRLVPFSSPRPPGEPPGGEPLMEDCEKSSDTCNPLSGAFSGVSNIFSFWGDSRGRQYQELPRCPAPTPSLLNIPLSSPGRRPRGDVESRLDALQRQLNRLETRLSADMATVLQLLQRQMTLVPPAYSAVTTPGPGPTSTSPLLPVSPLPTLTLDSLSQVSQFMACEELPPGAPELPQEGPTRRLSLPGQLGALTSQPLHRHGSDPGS

Row | Compound | hERG current change (%, negative = inhibition) at 10uM
1 | Cc1ccc(-n2c(=S)[nH]c3c(oc4ccccc43)c2=O)cc1C | 12.8%
2 | CN(Cc1cccnc1)C(=O)CC1C(=O)NCCN1CC(c1ccccc1)c1ccccc1 (stereo not drawn) | -25.4%
3 | CCOC(=O)c1cnc(SC)nc1Oc1cccc(NS(=O)(=O)c2ccccc2)c1 | 16.1%
4 | COc1ccc(CCNC(=O)C2CCN(C(=O)c3ccc(Cl)cc3)CC2)cc1OC | 2.77%
5 | Cc1cccc(CSc2nnc(-c3ccco3)o2)c1 | -14.7%
6 | O=C(NCCS(=O)(=O)NCc1ccc(F)cc1)c1ccccc1 | -12.2%
7 | COc1ccc(N(CC(=O)NN=C2CCCC2)S(=O)(=O)c2ccccc2)cc1 | -7.55%
8 | C#CCn1c(=NC(=O)c2ccccc2[N+](=O)[O-])sc2cc(S(C)(=O)=O)ccc21 | 12.6%
9 | O=C(CCCc1ccccc1)Nc1ccccc1C(F)(F)F | 20.3%
10 | O=C(NCC1CCCO1)C1CCCN1C(=O)Nc1ccccc1[N+](=O)[O-] (stereo not drawn) | -11.1%
11 | Cc1c(C)c2ccc(OC(C)C(=O)NCCCN3CCOCC3)c(C)c2oc1=O (stereo not drawn) | 12.4%
12 | COC(=O)c1ccc(C)c(NC(=O)CCSc2ccccc2)c1 | -5.69%
13 | COc1ccc(OC(C)c2nnc(N)s2)cc1 (stereo not drawn) | -71.4%
14 | CC(C)CCN1CCN(Cc2cccc3cccnc23)CC1CCO (stereo not drawn) | -26.2%
15 | N#Cc1cccc(-c2cn(S(=O)(=O)c3ccc(Cl)cc3)nc2N)c1 | 3.89%
16 | C=C(CC1([C@@H](NP(=O)(c2ccccc2)c2ccccc2)[C@H]2C[C@@H]2CCCC)CC1)c1ccccc1 | 7.72%
17 | Cn1c(=O)n(CC(=O)NCC2CCCO2)c(=O)c2c3c(sc21)CCCC3 (stereo not drawn) | 15.9%
18 | COc1ccc(C2=CC(=O)CCC2)cc1 | 2.67%
19 | CCOC(=O)C(C(=O)OCC)C1OC(=O)c2cc3c(cc21)C(=O)OC3C(C(=O)OCC)C(=O)OCC (stereo not drawn) | 12.6%

Row | Compound | hERG current change (%, negative = inhibition) at 10uM
20 | CCNc1c(NC(=O)c2cccs2)c(=O)oc2ccccc12 | 5.32%
21 | COc1ccc(-c2noc(CNS(=O)(=O)c3ccc(NC(C)=O)cc3)n2)cc1OC | 10.8%
22 | COC(=O)CCCNC(=O)c1ccc(S(=O)(=O)NCc2ccco2)cc1 | -4.22%
23 | CC1CCCCN1CC(O)COCCC12CC3CC(CC(C3)C1)C2.Cl (stereo not drawn) | -63.6%
24 | CCCCN(CC)C(=O)c1cc2cc3ccc(OC)cc3nc2o1 | -38.8%
25 | CCC(=O)N(C)C(c1ccccc1Cl)c1nnnn1-c1c(C)cccc1C (stereo not drawn) | 16.2%
26 | COc1ccc(NCC(=O)N/N=C/C2CCCCC2)cc1 | 1.05%
27 | Cc1ccccc1C(=O)NC(Oc1ccccc1)C(Cl)(Cl)Cl (stereo not drawn) | -25.4%
28 | Cc1cc(SCC(=O)c2ccccc2)n2nc(C)nc2n1 | 1.43%
29 | C=CCC1C=C(Cc2ccccc2)CC(CC=C)N1.Cl (stereo not drawn) | -22.7%
30 | CCn1c(C)nc2cc(C(=O)N=Nc3c(O)[nH]c4ccccc34)ccc21 | 1.1%
31 | Cc1ccc(S(=O)(=O)N2CCOCC2)cc1NC(=O)CSc1n[nH]c(N)n1 | 3.15%
32 | C=CCn1c(Sc2ncc([N+](=O)[O-])s2)n[nH]c1=O | -8.78%
33 | Cc1ccccc1NC(=S)N(CCCN1CCOCC1)Cc1cccs1 | -39.9%
34 | CCN(CC)C(=O)C1CCCN(C/C(C)=C/c2ccccc2)C1 (stereo not drawn) | -30.7%
35 | COc1ccc(C2OC(=O)Cc3cc(OC)c(OC)cc32)cc1 (stereo not drawn) | 25.8%
36 | Clc1ccc(-c2ccc(/C=N/Nc3cc(N4CCOCC4)nc(N4CCOCC4)n3)o2)cc1 | -2.8%
37 | C=C(C)c1cccc(C(C)(C)NC(=O)N2CCCC(C(N)=O)C2)c1 (stereo not drawn) | -5.02%
38 | O=C(CCS(=O)(=O)c1ccc(Cl)cc1)N1CCCc2ccccc21 | -0.368%

Row | Compound | hERG current change (%, negative = inhibition) at 10uM
39 | O=c1cc[nH]c2c(Cl)cccc12 | 10%
40 | CCc1cccc(NC(=O)CN(C)S(=O)(=O)c2cccs2)c1 | -5.93%
41 | O=C(CSC(=S)N1CCCC1)N(Cc1nnc(-c2ccccc2Cl)o1)C1CC1 | -6.76%
42 | CCOc1ccccc1NC(=O)CC(O)(C(F)(F)F)C(F)(F)F | -4.56%
43 | Cc1nn(C)c(C)c1S(=O)(=O)N(CC(=O)NCc1ccco1)c1ccc(C(C)C)cc1 | 16.6%
44 | CCN(CC)CCCOc1ccc(Cl)c(Cl)c1 | -60.5%
45 | Cc1cc(NS(=O)(=O)c2c(C)[nH]c(=O)[nH]c2=O)ccc1Br | 14.9%
46 | CCOC(=O)c1nnn(CC(=O)NC(=O)Nc2ccc(F)cc2)c1C(=O)OCC | -20.8%
47 | O=C(c1ccc2nc(N3CCOCC3)sc2c1)N1CCN(C(=O)c2ccco2)CC1 | -47.4%
48 | Cc1c(C(=O)N2CCCCC2C)sc2nc3n(c(=O)c12)CCC3 (stereo not drawn) | 9.9%
49 | COCCCn1c(=O)c2ccccc2n2c(=S)[nH]nc12 | 15.5%
50 | COc1ccccc1C(=O)N/C(=C\c1ccccc1)C(=O)NC(C)C(=O)O (stereo not drawn) | 16.5%
51 | CC(C)c1ccc(N2C(=O)CC(NNC(=O)c3ccccc3Cl)C2=O)cc1 (stereo not drawn) | 22.6%
52 | O=C(O)c1cccc(-c2ccc(/C=N/n3cnc4sc5c(c4c3=O)CCCC5)o2)c1 | 8.27%
53 | Nc1nc(Cl)cc(NCCc2ccccc2)n1 | 13%
54 | Cc1ccc(Cn2cc(S(=O)(=O)c3ccc(Cl)cc3)c(=O)c3cc(F)ccc32)cc1 | -14.6%
55 | C=CCOc1ccc(/C=N/n2nnnc2N)cc1OC | 8.83%
56 | CCOc1ccc2nc(SCC(=O)NC(=O)NCc3ccco3)[nH]c2c1 | -17.1%
57 | CCOC(=O)c1ccccc1NC(=O)c1cn(-c2ccc(OC)cc2)c(=O)c2ccccc12 | -4.21%
